Results reported in article PMC4336329 (PLoS ONE, 2015).
Among all 310,000 compounds or so, about 2,200 (0.71%) showed an effect of 50% or more. Effects have a minus sign here. This is one part of the list.

What follows are molecules tested against human ether-à-go-go-related gene (hERG) potassium channel (human, UniProt Q12809) (assay: primary screen, population patch clamp on CHO cells stably expressing hERG).
Chain of human ether-à-go-go-related gene (hERG) potassium channel (Q12809 whole entry, looked up): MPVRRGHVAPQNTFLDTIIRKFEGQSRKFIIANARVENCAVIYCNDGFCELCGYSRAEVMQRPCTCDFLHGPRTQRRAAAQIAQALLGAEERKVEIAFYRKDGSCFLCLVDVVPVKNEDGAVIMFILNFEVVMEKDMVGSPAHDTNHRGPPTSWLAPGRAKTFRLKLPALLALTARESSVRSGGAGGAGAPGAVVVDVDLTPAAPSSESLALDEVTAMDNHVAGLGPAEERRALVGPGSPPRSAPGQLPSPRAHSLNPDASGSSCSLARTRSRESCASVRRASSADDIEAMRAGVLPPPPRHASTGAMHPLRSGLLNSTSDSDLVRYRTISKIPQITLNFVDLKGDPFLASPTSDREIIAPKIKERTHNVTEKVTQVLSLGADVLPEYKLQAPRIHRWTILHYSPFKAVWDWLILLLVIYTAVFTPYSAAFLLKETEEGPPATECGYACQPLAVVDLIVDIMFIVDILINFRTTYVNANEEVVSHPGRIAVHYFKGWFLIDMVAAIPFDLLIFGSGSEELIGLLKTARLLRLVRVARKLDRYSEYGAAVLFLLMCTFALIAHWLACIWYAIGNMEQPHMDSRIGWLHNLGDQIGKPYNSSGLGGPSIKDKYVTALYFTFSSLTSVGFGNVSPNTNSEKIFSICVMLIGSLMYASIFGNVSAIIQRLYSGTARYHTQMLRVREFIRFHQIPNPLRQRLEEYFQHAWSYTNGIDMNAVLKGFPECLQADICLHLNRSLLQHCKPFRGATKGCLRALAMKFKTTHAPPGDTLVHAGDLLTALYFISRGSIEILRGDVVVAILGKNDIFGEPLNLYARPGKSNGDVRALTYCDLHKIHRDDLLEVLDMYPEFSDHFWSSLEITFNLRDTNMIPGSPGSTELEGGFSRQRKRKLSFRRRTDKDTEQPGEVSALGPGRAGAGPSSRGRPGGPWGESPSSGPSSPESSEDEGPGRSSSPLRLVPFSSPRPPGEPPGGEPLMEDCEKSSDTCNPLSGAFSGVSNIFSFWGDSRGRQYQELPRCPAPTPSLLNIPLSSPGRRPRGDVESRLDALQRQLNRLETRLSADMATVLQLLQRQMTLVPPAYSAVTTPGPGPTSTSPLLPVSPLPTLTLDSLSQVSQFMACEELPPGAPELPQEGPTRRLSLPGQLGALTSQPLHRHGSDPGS

Row | SMILES | hERG current change (%, negative = inhibition) at 1uM [%]
1 | C=CCOc1ccc(/C=C/C(=O)OCC(=O)N(C)CC(=O)Nc2ccccc2Cl)cc1 | 7.77
2 | O=C(NCCC(=O)N1CCN(C(=O)c2ccco2)CC1)c1ccc(Br)cc1 | 7.57
3 | Cc1ccc2c(c1)NC(=O)C(CC(=O)O)O2 (stereo not shown) | 13
4 | COc1ccccc1NC(=O)C1=C(C)NC(=O)NC1c1ccc(C)s1 (stereo not shown) | 12.8
5 | COc1ccc(Cl)cc1S(=O)(=O)Nc1ccc(Cl)cn1 | 12.6
6 | CN1CCN(c2nc3c(c(=O)n(C)c(=O)n3C)n2CC(N)=O)CC1 | -2.4
7 | CCN(CC)S(=O)(=O)c1ccc(N2CCOCC2)c(NC(=O)CC2OC(=O)c3ccccc32)c1 (stereo not shown) | 5.89
8 | CN(Cc1cccs1)C(=O)CN1C(=O)c2ccccc2S1(=O)=O | 6.04
9 | CCC(Oc1ccccc1)C(=O)Nc1nnc(S(=O)(=O)N2CCCC2)s1 (stereo not shown) | 16.7
10 | CC1CCCC(NC(=O)C2CCN(S(=O)(=O)c3cnc[nH]3)CC2)C1C (stereo not shown) | 3.52
11 | Cc1nc(Nc2cccc(F)c2)c2oc3ccccc3c2n1 | 8.71
12 | O=C(O)CC(Cc1ccc(Cl)cc1)C(=O)NCc1ccccc1 (stereo not shown) | 6.22
13 | CNC(=O)c1ccsc1NC(=O)C1CCN(S(=O)(=O)c2cccs2)CC1 | 0.629
14 | CCOC(=O)C1(CCCc2ccccc2)CCN(Cc2cn(CC)nc2C)CC1 | -59.8
15 | Cc1nc(NC(=O)c2cccs2)ccc1Br | 12.8
16 | CC1(c2ccc(Cl)cc2Cl)OCC(Cn2ccnc2)O1.O=C(O)C(=O)O (stereo not shown) | 11.4
17 | COc1ccc(Cc2nnc(N/N=C/c3ccc(C)o3)[nH]c2=O)cc1 | 14.1
18 | COc1ccc(CCNC(=O)CCC(=O)NC2CCCCC2)cc1OC | 10.5
19 | CSc1nncc(/C(C)=N/O)n1 | 8.11
20 | CCCCSc1ccc(NC(=O)c2cccnc2)cc1 | 10.1
21 | CCn1cnc2sc(C(=O)Nc3ccccc3OC)c(C)c2c1=O | 6.38
22 | COC(=O)C1=C(c2ccc(F)cc2OCc2ccccc2)C[C@@H]2CC[C@H]1N2C(=O)NCCOc1ccccc1Cl | 7.93
23 | CCOC(=O)c1ccc(S(=O)(=O)N2CCNCC2)cc1 | 0.0993
24 | CCOC(=O)CSc1nc2ccc(C)cc2[nH]1.Cl | 9.46
25 | CC(=O)OC[C@H]1O[C@H](C/C=N/OC[C@@H](O)[C@H]2O[C@@H]3OC(C)(C)O[C@@H]3[C@H]2O)C=C[C@@H]1OC(C)=O | 3.95
